Reference: PubChem BioAssay AID588342 (National Center for Advancing Translational Sciences (NCATS), 2011)
Hit rate of the full screen: of about 360,000 compounds, about 25,000 (6.9%) were called active. This list was built around the results that the source calls inconclusive (neither active nor inactive); the mix of calls is not that of the screen. The call rests on the fitted dose curve; in most records, active means well fitted inhibition curve with a large enough effect; inconclusive means small, poorly fitted or top-dose-only effect; inactive means flat fitted curve, though single readings scatter. Potencies beside an inconclusive call are fits to weak or partial responses and may not hold up.

Target: Luciferin 4-monooxygenase (Photinus pyralis) (UniProt P08659)
Assay: qHTS profiling assay for firefly luciferase inhibitor/activator using purifed enzyme and Km concentrations of substrates (counterscreen for miR-21 project); further: nearly all actives have a fitted effect of over 55% in size;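 on activity change, negative = inhibition: plate controls were vehicle for no effect and reference inhibitor for full effect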
Settings: purified FLuc, luminescence inhibition; series mostly up to 57.5 µM; activity change, negative = inhibition: at the top concentration
Outline: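 Biochemical qHTS of compounds, final roughly 60 µM downward over six points, against 10 nM purified firefly luciferase using Km concentrations of substrates (10 uM D-luciferin, 10 uM ATP) in Tris acetate pH 7.5 buffer; luminescence output.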
Potency means the concentration at half of the fitted maximal effect; tags describe the fitted curve by direction and shape.

Sequence of UniProt P08659 (P08659 whole entry, looked up): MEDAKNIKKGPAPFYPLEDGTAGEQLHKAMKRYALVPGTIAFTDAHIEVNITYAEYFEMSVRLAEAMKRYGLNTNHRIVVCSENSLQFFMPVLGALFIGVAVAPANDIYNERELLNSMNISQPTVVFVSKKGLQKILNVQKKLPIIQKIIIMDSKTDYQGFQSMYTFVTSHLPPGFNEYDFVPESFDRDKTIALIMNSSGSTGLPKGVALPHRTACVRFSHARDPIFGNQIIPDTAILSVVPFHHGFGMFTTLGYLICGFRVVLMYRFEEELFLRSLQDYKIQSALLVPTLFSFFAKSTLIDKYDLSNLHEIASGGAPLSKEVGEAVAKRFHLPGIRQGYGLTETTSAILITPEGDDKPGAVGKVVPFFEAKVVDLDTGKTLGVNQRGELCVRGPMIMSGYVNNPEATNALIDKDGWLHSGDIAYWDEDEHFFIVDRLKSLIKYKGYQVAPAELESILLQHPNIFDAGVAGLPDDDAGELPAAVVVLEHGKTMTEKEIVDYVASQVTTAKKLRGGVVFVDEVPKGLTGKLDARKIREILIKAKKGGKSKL

Row | SMILES | Potency | activity change, negative = inhibition
1 | CCC(O)C1CCN(Cc2cn(-c3ccc(OC)cc3)nc2-c2cccc(F)c2)CC1 (stereo not given) | inconclusive: 19 µM [inhibitor, partial curve] | –
2 | Cc1ccc(-c2cc(-c3ccccc3[N+](=O)[O-])[nH]n2)c(O)c1 | inconclusive: 13.5 µM [inhibitor, partial curve, poor fit] | –
3 | CCOC(=O)N1CCN(S(=O)(=O)N2CCCC(C(=O)NCCCN3CCCCC3)C2)CC1 (stereo not given) | – | inactive: 0.583%
4 | CC(=O)c1c(C)[nH]c(C(=O)COC(=O)c2cccc(S(=O)(=O)N(C)c3ccccc3)c2)c1C | inconclusive: 21.3 µM [inhibitor, partial curve] | –
5 | CCOc1ccc(N/C=C/C(=O)c2ccc(OC)cc2)cc1 | active: 1.2 µM | –
6 | C=CCNC(=O)CN1CCC(c2nc3cc(C)c(C)cc3[nH]2)CC1 | inconclusive: 37.9 µM [inhibitor, single point] | –
7 | CN1CCc2c(sc3nc(NN)n(-c4ccc(Cl)cc4)c(=O)c23)C1 | inconclusive: 23.9 µM [inhibitor, single point] | –
8 | COc1ccccc1/C=C/C=N/NC(=O)Cc1cccn1C | inconclusive: 37.9 µM [inhibitor, partial curve, poor fit] | –
9 | Cc1oc2c(C)c3oc(=O)c(CC(=O)N[C@@H](CCCNC(N)=O)C(=O)O)c(C)c3cc2c1C | inconclusive: 37.9 µM [inhibitor, partial curve, poor fit] | –
10 | O=S(=O)(Nc1cccc(-c2nc3cccnc3s2)c1)c1cccs1 | inconclusive: 23.9 µM [inhibitor, single point] | –
11 | NNc1nc2ccc(Cl)cc2s1 | inconclusive: 15.1 µM [inhibitor, partial curve, poor fit] | –
12 | COc1ccc(CCNS(=O)(=O)c2ccc(N3CCCCS3(=O)=O)cc2)cc1 | – | inactive: 3.31%
13 | COc1cccc(-c2nnc3n2N=C(C(C)(C)C)CS3)c1 | – | inactive: -1.49%
14 | S=C(N/N=C/c1ccc2ncccc2c1)Nc1ccccc1 | active: 4.78 µM | –
15 | COc1ccc(/C=C2\Oc3cc(OCC(=O)N4CCC(C(=O)O)CC4)ccc3C2=O)c(OC)c1OC | inconclusive: 26.9 µM [inhibitor, single point] | –
16 | Cc1cc(C)c2nc(N3CCOCC3)c(C#N)cc2c1 | inconclusive: 23.9 µM [inhibitor, partial curve, poor fit] | –
17 | COc1ccc(NC(=O)c2cncn2-c2ccccc2)cc1 | – | inactive: -5.63%
18 | O=C1O/C(=C/c2ccccc2)c2ccccc21 | active: 12 µM | –
19 | CCOc1ccc2oc(C(=O)OCC(=O)NC3CCCC3)c(C)c2c1 | – | inactive: -0.341%
20 | Cn1cnnc1SCC(=O)Nc1nc(-c2ccc(F)cc2)cs1 | inconclusive: 30.1 µM [inhibitor, partial curve, poor fit] | –
21 | COc1ccc(CCn2c(C)nc3ccccc3c2=O)cc1OC | – | inactive: 3%
22 | CCOc1ccc2nc(N3C(=O)/C(=C/c4ccccc4)NC3=S)sc2c1 | active: 6.01 µM | –
23 | CN(Cc1ccccc1)S(=O)(=O)c1nnc(NC(=O)c2ccccc2F)s1 | inconclusive: 23.9 µM [inhibitor, single point] | –
24 | Cc1ccc(-c2noc(-c3nnn(-c4ccc(Br)cc4F)c3C)n2)cc1 | inconclusive: 9.53 µM [inhibitor, partial curve] | –

Row | SMILES | Potency | activity change, negative = inhibition
25 | COc1ccc(NC(=O)N2c3ccc(OC)cc3C(C)=CC2(C)C)cc1 | inconclusive: 37.9 µM [inhibitor, partial curve, poor fit] | –
26 | Cc1cc(C)n(-c2ccc(C(=O)Oc3ccc4c(c3)OCO4)cc2)n1 | inconclusive: 9.53 µM [inhibitor, partial curve] | –
27 | Cc1ccc2nc(NC(=O)c3ccc4c(c3)OCO4)sc2c1 | active: 0.953 µM | –
28 | COc1ccc(OC)c(NC(=O)Nc2ccc(Cl)cc2)c1 | active: 19 µM | –
29 | COc1cc(Cl)ccc1OCc1cc(C(=O)NC(C)Cc2cccnc2)no1 (stereo not given) | active: 8.49 µM | –
30 | COc1cc(/C=N\NC(=O)c2ccc(-c3ccccc3)cc2)cc(OC)c1OC(C)=O | inconclusive: 16.9 µM [inhibitor, single point] | –
31 | CCCCCC(=O)Nc1nc(C)c(-c2csc(Nc3ccccc3OC)n2)s1 | inconclusive: 12 µM [inhibitor, partial curve] | –
32 | COc1ccc(NC2CC(=O)N(c3ccc(C(=O)O)cc3)C2=O)cc1 (stereo not given) | inconclusive: 37.9 µM [inhibitor, single point] | –
33 | Cc1ccccc1Cc1ccc(Cl)nn1 | – | inactive: -0.411%
34 | CN(C)c1ccc(N=Cc2nc(-c3ccccc3)oc2OC(=O)c2cccc(Cl)c2)cc1 | inconclusive: 5.36 µM [inhibitor, partial curve] | –
35 | COc1ccc(Br)cc1CNC(=O)c1cnc2sc(N3CCC(C)CC3)nn2c1=O | – | inactive: -0.98%
36 | COc1cc(/C=C2/SC(=S)N(Cc3ccccc3)C2=O)ccc1OS(C)(=O)=O | inconclusive: 8.49 µM [inhibitor, partial curve, poor fit] | –
37 | Cc1cccc(NC(=O)C2CCCN2S(=O)(=O)c2ccc3nc(-c4ccccc4)[nH]c3c2)c1 (stereo not given) | – | inactive: -14.5%
38 | CN(CC(=O)NC(=O)NCc1ccccc1)CC(=O)Nc1ccc(Cl)c(Cl)c1 | – | inactive: 1.2%
39 | COc1cc(Cl)c(NC(=O)c2cc3ccccn3n2)c(OC)c1 | inconclusive: 13.5 µM [inhibitor, partial curve] | –
40 | CC(=O)Nc1ccc(-c2ccc(NC(C)=O)c(O)c2)cc1O | inconclusive: 23.9 µM [inhibitor, partial curve] | –
41 | O=c1ccc(NS(=O)(=O)c2ccccc2Cl)cn1Cc1ccc(Cl)c(Cl)c1 | inconclusive: 30.1 µM [inhibitor, single point] | –
42 | O=C(CSCc1ccccc1)Nc1cccc(F)c1 | inconclusive: 23.9 µM [inhibitor, partial curve] | –
43 | CNc1nc2sc3c(c2c(=O)n1C)CC(C)(C)SC3 | inconclusive: 16.9 µM [inhibitor, partial curve, poor fit] | –
44 | CCOc1cc(C(=O)Nc2ccc(-c3cn4cccnc4n3)cc2)cc(OCC)c1OCC | inconclusive: 10.7 µM [inhibitor, partial curve] | –
45 | CC(=O)Nc1sc(N/N=C/c2ccc(C)cc2)nc1-c1ccc(C)cc1 | active: 8.49 µM | –
46 | O=C(OCC(=O)c1ccc(Cl)cc1Cl)c1ccc2c(c1)C(=O)N(c1cccc3ncccc13)C2=O | inconclusive: 5.36 µM [inhibitor, full curve] | –
47 | COc1ccc(-c2cc(COc3ccccc3)on2)cc1 | active: 10.7 µM | –
48 | CCc1cccc(NC(=O)COc2ccccc2)c1 | inconclusive: 26.9 µM [inhibitor, single point] | –

Row | SMILES | Potency | activity change, negative = inhibition
49 | Cc1cc(C)c2nc(-c3ccccn3)cc(C(=O)Nn3cnnc3)c2c1 | active: 19 µM | –
50 | COc1cccc(C(=O)Nc2cccc(-c3ccccc3)c2)c1 | active: 21.3 µM | –
51 | Cc1c(C(=O)COC(C)(C)C)[nH]c2ccccc12 | inconclusive: 23.9 µM [inhibitor, partial curve, poor fit] | –
52 | COc1ccc(Cn2ccnc2SCC(=O)Nc2nc3ccccc3s2)cc1 | inconclusive: 23.9 µM [inhibitor, partial curve, poor fit] | –
53 | C/C(=N/NC(=S)Nc1ccccc1)c1ccc2c(c1)OCO2 | inconclusive: 37.9 µM [inhibitor, partial curve, poor fit] | –
54 | O=C(O)CC1(c2ccc(F)cc2)C2CC3CC(C2)CC1C3 (stereo not given) | – | inactive: -1.85%
55 | O=C(CN1C(=O)CCC1=O)Nc1nc(-c2ccccn2)cs1 | – | inactive: -9.82%
56 | Cc1ccc(CSc2ncc(Cl)c(C(=O)Nc3nnc(C)s3)n2)cc1 | active: 15.1 µM | –
57 | COc1ccccc1OCCNC(=O)c1c(-c2ccccc2Cl)noc1C | – | inactive: 1.49%
58 | COC(=O)COc1ccc2c(-c3ccc(OC)cc3)cc(=O)oc2c1 | inconclusive: 19 µM [inhibitor, partial curve, poor fit] | –
59 | NS(=O)(=O)c1cccc(NC(=O)CSc2nc3nc(-c4cccs4)cc(C(F)(F)F)c3c(=O)[nH]2)c1 | inconclusive: 23.9 µM [inhibitor, single point] | –
60 | Oc1ccc(/C=N/Nc2ccnc3cc(Cl)ccc23)c(O)c1O | inconclusive: 23.9 µM [inhibitor, single point] | –
61 | Nc1ccc2nc(-c3ccccc3)sc2c1 | active: 0.301 µM | –
62 | Cc1c(C(=O)NCc2cccc(Br)c2)oc2ccc3c(c12)C(=O)CC(C)(C)O3 | inconclusive: 6.01 µM [inhibitor, partial curve] | –
63 | Cn1c(=O)n(Cc2c(F)cccc2Cl)c(=O)c2c1nc1n2CCN1c1ccc(F)cc1 | inconclusive: 37.9 µM [inhibitor, partial curve, poor fit] | –
64 | O=C(CSc1ncc(-c2ccccc2)n1C1CCCC1)N1CCc2ccccc21 | inconclusive: 23.9 µM [inhibitor, partial curve, poor fit] | –
65 | COc1c(C)cccc1C(=O)Nc1ccc(-c2nc3ccccc3s2)c(Cl)c1 | – | inactive: -7.44%
66 | Cc1sc(NC(=O)c2ccco2)c(CN2CCC(C)CC2)c1C | inconclusive: 30.1 µM [inhibitor, single point] | –
67 | Cc1c(C(=O)NCc2cccc(Cl)c2)sc2nc3n(c(=O)c12)CCCC3 | inconclusive: 42.6 µM [inhibitor, partial curve, poor fit] | –
68 | Cc1c(C(=O)NCc2ccccn2)oc2ccccc12 | inconclusive: 33.8 µM [inhibitor, single point] | –
69 | Cc1cccc(NC(=O)Cn2c(O)c(N=NC(=O)c3ccccc3O)c3ccccc32)c1 | inconclusive: 1.69 µM [inhibitor, full curve] | –
70 | CCOC(=O)c1cc(=O)n2nc(-c3ccccc3F)nc2s1 | inconclusive: 9.53 µM [inhibitor, partial curve, poor fit] | –
